Measured values: FireProtDB (doi:10.1021/bi051669r)

Details: Homo sapiens, pH 7.4, CD, Sodium phosphate 10 mM, reversible: Yes

Apolipoprotein A-I wild type (sequence left out)
denaturant m value (25 °C, GdnHCl): 2.5 kcal/mol/M
denaturant midpoint (higher = more stable) (25 °C, GdnHCl): 1 M and 2.3 M
unfolding free energy (25 °C, GdnHCl): 2.5 kcal/mol and 4.1 kcal/mol
unfolding enthalpy (van 't Hoff) (Thermal): 41 kcal/mol and 48 kcal/mol

Values joined by “and” are separate entries in the source; they are usually repeats but may differ in a detail not shown here. Equal entries are not always repeated.
